Source: paper PMC4336329 (PLoS ONE, 2015)
Hit rate of the full screen: of about 310,000 compounds, about 2,200 (0.71%) showed an effect of 50% or more. Effects have a minus sign here. The list shows a part of the results.

target: human ether-à-go-go-related gene (hERG) potassium channel (human, UniProt Q12809); assay: primary screen, population patch clamp on CHO cells stably expressing hERG
Sequence (Q12809 whole entry, looked up): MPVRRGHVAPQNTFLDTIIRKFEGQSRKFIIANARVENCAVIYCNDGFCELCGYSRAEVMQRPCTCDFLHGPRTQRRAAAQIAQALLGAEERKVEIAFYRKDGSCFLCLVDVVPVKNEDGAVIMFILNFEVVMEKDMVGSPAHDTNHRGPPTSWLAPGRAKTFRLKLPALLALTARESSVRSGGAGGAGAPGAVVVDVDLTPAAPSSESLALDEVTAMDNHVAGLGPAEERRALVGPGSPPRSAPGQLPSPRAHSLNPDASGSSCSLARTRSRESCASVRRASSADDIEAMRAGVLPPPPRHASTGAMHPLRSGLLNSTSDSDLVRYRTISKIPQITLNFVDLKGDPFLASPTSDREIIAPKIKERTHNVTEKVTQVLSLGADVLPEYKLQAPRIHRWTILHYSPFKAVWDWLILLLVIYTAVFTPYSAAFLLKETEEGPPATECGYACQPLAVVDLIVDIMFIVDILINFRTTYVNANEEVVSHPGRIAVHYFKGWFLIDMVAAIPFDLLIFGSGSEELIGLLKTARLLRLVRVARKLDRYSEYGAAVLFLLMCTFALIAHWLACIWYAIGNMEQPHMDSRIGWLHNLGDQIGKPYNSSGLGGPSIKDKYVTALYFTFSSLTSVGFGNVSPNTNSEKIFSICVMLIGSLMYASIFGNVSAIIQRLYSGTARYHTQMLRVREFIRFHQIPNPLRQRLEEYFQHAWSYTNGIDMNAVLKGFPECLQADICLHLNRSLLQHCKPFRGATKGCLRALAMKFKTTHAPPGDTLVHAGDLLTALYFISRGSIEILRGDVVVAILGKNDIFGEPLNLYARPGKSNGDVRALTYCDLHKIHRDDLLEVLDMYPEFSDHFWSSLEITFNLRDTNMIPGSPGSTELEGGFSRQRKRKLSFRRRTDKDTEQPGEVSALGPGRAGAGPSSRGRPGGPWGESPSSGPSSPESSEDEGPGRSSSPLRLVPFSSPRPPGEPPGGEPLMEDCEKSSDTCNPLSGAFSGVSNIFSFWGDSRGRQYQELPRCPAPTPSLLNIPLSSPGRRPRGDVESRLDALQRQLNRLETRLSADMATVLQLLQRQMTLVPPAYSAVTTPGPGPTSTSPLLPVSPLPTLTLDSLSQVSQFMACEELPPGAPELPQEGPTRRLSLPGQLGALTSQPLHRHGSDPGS

Point of comparison: `CCOc1cc(CNCc2cccs2)cc(Br)c1OCC.Cl`, “hERG current change (%, negative = inhibition) at 1uM” value 3.63%. Against it:
- CCN(CC)CCCC(C)NC(=O)c1cc(=O)c2ccccc2o1.Cl (stereo not shown) — lower, -0.658%
- O=C(O)CSc1c2c(nc3cc(C(=O)N4CCOCC4)ccc13)CCCC2 — higher, 6.67%
- O=C(Nc1ccc(Cl)cc1)N1CC=CCC1 — higher, 14.6%
- O=[N+]([O-])C(/C=C(\Cl)[N+](=O)[O-])=C1N(Cc2ccc(Cl)nc2)CCN1Cc1ccc(Cl)nc1 — lower, -4.06%
- CN1CCN(C(=O)COc2ccc(C(C)(C)C)cc2Br)CC1 — lower, 3.27%
- COc1cc(/C=C2\C(=N)N3N=CSC3=NC2=O)ccc1OS(=O)(=O)c1ccccc1[N+](=O)[O-] — higher, 11.2%
- N#Cc1ccc(C(=O)NC2CCCCCCC2)cc1 — lower, 1.73%
- Cc1nc2cc(NC(=O)c3cccc(S(C)(=O)=O)c3)ccc2o1 — higher, 13.5%
- COc1nc(C)cc(C)c1S(=O)(=O)c1ccccc1 — higher, 18.1%
- C=CC1CN(CC(=O)OC)S(=O)(=O)c2ccccc21 (stereo not shown) — higher, 5.84%
- CCOc1cc(/C=C2/C(=O)ON=C2C)ccc1O — higher, 20.7%
- CC(Sc1nc(N)cc(N)n1)C(=O)Nc1ccc(N2CCOCC2)cc1 (stereo not shown) — higher, 14.7%
- CCN(CC)c1ccc(N=C2C(=O)Nc3ccccc32)cc1 — lower, -3.82%
- Oc1c(Cl)cc(Cl)cc1/C=N/c1ncn[nH]1 — higher, 10.8%
- COc1ccc(-c2ccc(SCC(=O)NCc3ccc4c(c3)OCO4)nn2)cc1OC — higher, 7.22%
- C=CCOC(=O)C1=C(C)OC(N)=C(C#N)C1c1ccoc1 (stereo not shown) — higher, 8.84%
- Cn1ccnc1SCC(=O)Nc1cccc2ccccc12 — higher, 5.1%
- Cc1cccc2cc(CN(Cc3nnnn3Cc3ccco3)C3CCCC3)c3nnnn3c12 — higher, 13.1%
- CCC(C)NC(=O)C1CCN(S(=O)(=O)c2ccc(OC)cc2)CC1 (stereo not shown) — higher, 13.1%
- COc1ccc(Cl)cc1S(=O)(=O)N1CCCC(C(=O)N2CCOCC2)C1 (stereo not shown) — lower, -0.264%
- COc1cc(NC(=O)C2CCCO2)c(OC)cc1NC(=O)c1ccccc1 (stereo not shown) — higher, 12.3%
- CCOc1cc(C)c(C(C)C)cc1S(=O)(=O)NCc1ccccn1 — higher, 6.17%
- CC(=O)c1ccc(NC(=O)c2ccc(C)c(Br)c2)cc1 — higher, 4.32%
- Cc1c(-c2ccccc2)cnc2c(C)cccc12 — higher, 19%
- CCOc1cc(CNCc2ccccn2)ccc1OCC(=O)NC(C)(C)C.Cl — higher, 8.36%
- CC(C)(C)c1ccc(NC(=O)COC(=O)c2ccc3ncsc3c2)cc1 — higher, 6.72%
- CC(C)c1c(C(=O)N/N=C/c2ccc(-c3ccccc3)cc2)nnn1-c1nonc1N — higher, 23.7%
- C/C=C/c1ccc(OCCCCOc2ccc(OC)cc2)c(OC)c1 — lower, 3.2%
- COc1cccc(CNC(=O)c2ccccc2NC(=O)C2=C(C)OCCS2)c1 — higher, 9.99%
- COc1ccc(C(=O)OCC(=O)NC23CC4CC(CC(C4)C2)C3)c(OC)c1OC — lower, -15.3%
- CC(=O)c1ccc(N2CCN(C(=S)Nc3ccccc3)CC2)cc1 — lower, 2.46%
- O=C(NC12CC3CC(CC(C3)C1)C2)N1CCN(c2ncccn2)CC1 — higher, 9.02%
- CCOC(=O)c1[nH]c(C)c(C(=O)N2CCc3ccccc32)c1C — higher, 6.01%
- COc1ccc(N2Cc3ccc(C(=O)N/N=C\c4ccc(O)cc4O)cc3C2)cc1 — higher, 19.1%
- CCOC(=O)c1sc(NC(=O)CSc2ncn[nH]2)c(C#N)c1C — lower, -5.79%
- CCSc1ccccc1C(=O)Nc1nc2ccccc2c(=O)[nH]1 — higher, 17.6%
- N#Cc1ccc(NC(=O)c2cc(-c3cccs3)on2)cc1 — higher, 24.2%
- Cc1oc2ccc(NS(=O)(=O)c3ccc(C(C)(C)C)cc3)cc2c1C(=O)Nc1ccccc1 — lower, -1.99%
- CCC(=O)c1ccc(N2CCN(S(=O)(=O)c3ccccc3)CC2)c(F)c1 — higher, 9.4%
- COCc1c(C(=O)N2CCN(c3ccc(C(F)(F)F)cn3)CC2)oc2ccccc12 — higher, 13.8%
- Cc1nn(-c2ccc(Cl)cc2)c2sc(C(=O)N3CCN(c4ccccn4)CC3)cc12 — higher, 9.33%
- O=C(CCc1nnc(Cc2c[nH]c3ccccc23)o1)NC(C1CC1)C1CC1 — higher, 16.4%
